Laboratory results reported in the supplement of paper PMC9174493.
The other results are listed elsewhere or left out. Single values of this set are uncertain. Values with irradiation are relative to irradiated vehicle.

system: A549-Dual; experiment: ISRE reporter (Lucia luciferase) activity, viability-corrected, relative to vehicle (fold change vs vehicle); higher = more activation of STING-IRF / NF-kB immune response reporter; details: 10 µM; irradiation: none

Structure (SMILES)	ISRE reporter
COC1C(OC(C)=O)CC(=O)OC(C)C/C=C/C=C/C(O)C(C)CC(CC=O)C1OC1OC(C)C(OC2CC(C)(O)C(OC(=O)CC(C)C)C(C)O2)C(N(C)C)C1O (stereo not drawn) [Josamycin]	0.713
CCCCCCCCCCCC(=O)O [Lauric Acid]	0.925
CC1=CC(=O)CC(C)(C)C1(O)/C=C/C(C)=C\C(=O)O (stereo not drawn) [Abscisic Acid (Dormin)]	0.702
CC(NC(=NC#N)Nc1ccncc1)C(C)(C)C.O (stereo not drawn) [Pinacidil]	0.505
O=C([O-])CC(O)CC(O)C=Cc1c(C2CC2)nc2ccccc2c1-c1ccc(F)cc1.O=C([O-])CC(O)CC(O)C=Cc1c(C2CC2)nc2ccccc2c1-c1ccc(F)cc1.[Ca+2] (stereo not drawn) [Pitavastatin Calcium]	1.57
OCC1OC(O)C(O)C(O)C1O [D-Mannose]	0.864
Cc1ncc(COP(=O)(O)O)c(C=O)c1O.O [Pyridoxal 5-phosphate monohydrate]	0.536
CC1(C)SC2C(NC(=O)C(NC(=O)N3CCN(S(C)(=O)=O)C3=O)c3ccccc3)C(=O)N2C1C(=O)[O-].[Na+] (stereo not drawn) [Mezlocillin Sodium]	0.893
